Source: publication PMC9911399, “Two distinct binding modes provide the RNA-binding protein RbFox with extraordinary sequence specificity”
Changes are numbered by the printed parent chain; changes in the protein carry UniProt numbers. The list shows a part of the results.

T1: RBFOX1 RRM (Homo sapiens, UniProt Q9NWB1 109-208)
T1 sequence: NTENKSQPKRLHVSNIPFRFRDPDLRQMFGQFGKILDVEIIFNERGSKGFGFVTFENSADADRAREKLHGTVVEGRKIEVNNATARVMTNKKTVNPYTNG

B1: UCACCAC (DNA:RNA)
RNA: GGGAGACCGGAAUUCAGAUUGUCCUCACCACUUAAAUCCCGUCGUAGCCACCA
DNA 1: CAATCTGAATTCCGGTCTCCC
DNA 2: TGGTGGCTACGACGGGATT
B2: GGUAGUU (DNA:RNA)
RNA: GGGAGACCGGAAUUCAGAUUGUCCGGUAGUUUUAAAUCCCGUCGUAGCCACCA
DNA 1: CAATCTGAATTCCGGTCTCCC
DNA 2: TGGTGGCTACGACGGGATT
B3: CCCUGGU (DNA:RNA)
RNA: B2 RNA with G25C, G26C, U27C, A28U, U30G
DNA 1: CAATCTGAATTCCGGTCTCCC
DNA 2: TGGTGGCTACGACGGGATT
B4: UACACAA (DNA:RNA)
RNA: B1 RNA with C26A, A27C, C28A, C31A
DNA 1: CAATCTGAATTCCGGTCTCCC
DNA 2: TGGTGGCTACGACGGGATT
B5: UCCGCCC (DNA:RNA)
RNA: B1 RNA with A27C, C28G, A30C
DNA 1: CAATCTGAATTCCGGTCTCCC
DNA 2: TGGTGGCTACGACGGGATT
B6: GGCAUAC (DNA:RNA)
RNA: B2 RNA with U27C, G29U, U30A, U31C
DNA 1: CAATCTGAATTCCGGTCTCCC
DNA 2: TGGTGGCTACGACGGGATT
B7: GAGUGCG (DNA:RNA)
RNA: B2 RNA with G26A, U27G, A28U, U30C, U31G
DNA 1: CAATCTGAATTCCGGTCTCCC
DNA 2: TGGTGGCTACGACGGGATT
B8: UGAACCG (DNA:RNA)
RNA: B1 RNA with C26G, C28A, A30C, C31G
DNA 1: CAATCTGAATTCCGGTCTCCC
DNA 2: TGGTGGCTACGACGGGATT
B9: CGCGCAC (DNA:RNA)
RNA: B1 RNA with U25C, C26G, A27C, C28G
DNA 1: CAATCTGAATTCCGGTCTCCC
DNA 2: TGGTGGCTACGACGGGATT
B10: AGCCUUA (DNA:RNA)
RNA: B2 RNA with G25A, U27C, A28C, G29U, U31A
DNA 1: CAATCTGAATTCCGGTCTCCC
DNA 2: TGGTGGCTACGACGGGATT
B11: ACGCGUC (DNA:RNA)
RNA: B1 RNA with U25A, A27G, C29G, A30U
DNA 1: CAATCTGAATTCCGGTCTCCC
DNA 2: TGGTGGCTACGACGGGATT
B12: ACCAUCC (DNA:RNA)
RNA: B1 RNA with U25A, A27C, C28A, C29U, A30C
DNA 1: CAATCTGAATTCCGGTCTCCC
DNA 2: TGGTGGCTACGACGGGATT
B13: CAUAAAC (DNA:RNA)
RNA: B2 RNA with G25C, G26A, G29A, U30A, U31C
DNA 1: CAATCTGAATTCCGGTCTCCC
DNA 2: TGGTGGCTACGACGGGATT
B14: AGCACCU (DNA:RNA)
RNA: B2 RNA with G25A, U27C, G29C, U30C
DNA 1: CAATCTGAATTCCGGTCTCCC
DNA 2: TGGTGGCTACGACGGGATT
B15: CCCUCGU (DNA:RNA)
RNA: B1 RNA with U25C, A27C, C28U, A30G, C31U
DNA 1: CAATCTGAATTCCGGTCTCCC
DNA 2: TGGTGGCTACGACGGGATT
B16: AAUACUA (DNA:RNA)
RNA: B2 RNA with G25A, G26A, G29C, U31A
DNA 1: CAATCTGAATTCCGGTCTCCC
DNA 2: TGGTGGCTACGACGGGATT
B17: CACCGUC (DNA:RNA)
RNA: B2 RNA with G25C, G26A, U27C, A28C, U31C
DNA 1: CAATCTGAATTCCGGTCTCCC
DNA 2: TGGTGGCTACGACGGGATT
B18: AUCAGCA (DNA:RNA)
RNA: B2 RNA with G25A, G26U, U27C, U30C, U31A
DNA 1: CAATCTGAATTCCGGTCTCCC
DNA 2: TGGTGGCTACGACGGGATT
B19: AGAGUAC (DNA:RNA)
RNA: B1 RNA with U25A, C26G, C28G, C29U
DNA 1: CAATCTGAATTCCGGTCTCCC
DNA 2: TGGTGGCTACGACGGGATT
B20: CCAGCCU (DNA:RNA)
RNA: B1 RNA with U25C, C28G, A30C, C31U
DNA 1: CAATCTGAATTCCGGTCTCCC
DNA 2: TGGTGGCTACGACGGGATT
B21: UACUAGG (DNA:RNA)
RNA: B1 RNA with C26A, A27C, C28U, C29A, A30G, C31G
DNA 1: CAATCTGAATTCCGGTCTCCC
DNA 2: TGGTGGCTACGACGGGATT
B22: GUUUACG (DNA:RNA)
RNA: B2 RNA with G26U, A28U, G29A, U30C, U31G
DNA 1: CAATCTGAATTCCGGTCTCCC
DNA 2: TGGTGGCTACGACGGGATT
B23: UCAAUUG (DNA:RNA)
RNA: B1 RNA with C28A, C29U, A30U, C31G
DNA 1: CAATCTGAATTCCGGTCTCCC
DNA 2: TGGTGGCTACGACGGGATT
B24: ACCAAAG (DNA:RNA)
RNA: B1 RNA with U25A, A27C, C28A, C29A, C31G
DNA 1: CAATCTGAATTCCGGTCTCCC
DNA 2: TGGTGGCTACGACGGGATT
B25: CUGCCGC (DNA:RNA)
RNA: B1 RNA with U25C, C26U, A27G, A30G
DNA 1: CAATCTGAATTCCGGTCTCCC
DNA 2: TGGTGGCTACGACGGGATT
B26: GAUGCUG (DNA:RNA)
RNA: B2 RNA with G26A, A28G, G29C, U31G
DNA 1: CAATCTGAATTCCGGTCTCCC
DNA 2: TGGTGGCTACGACGGGATT
B27: UACUUAG (DNA:RNA)
RNA: B1 RNA with C26A, A27C, C28U, C29U, C31G
DNA 1: CAATCTGAATTCCGGTCTCCC
DNA 2: TGGTGGCTACGACGGGATT
B28: GUAUACC (DNA:RNA)
RNA: B1 RNA with U25G, C26U, C28U, C29A, A30C
DNA 1: CAATCTGAATTCCGGTCTCCC
DNA 2: TGGTGGCTACGACGGGATT
B29: UUGAUCA (DNA:RNA)
RNA: B2 RNA with G25U, G26U, U27G, G29U, U30C, U31A
DNA 1: CAATCTGAATTCCGGTCTCCC
DNA 2: TGGTGGCTACGACGGGATT
B30: CAGGUUA (DNA:RNA)
RNA: B2 RNA with G25C, G26A, U27G, A28G, G29U, U31A
DNA 1: CAATCTGAATTCCGGTCTCCC
DNA 2: TGGTGGCTACGACGGGATT
B31: UGUCAAA (DNA:RNA)
RNA: B1 RNA with C26G, A27U, C29A, C31A
DNA 1: CAATCTGAATTCCGGTCTCCC
DNA 2: TGGTGGCTACGACGGGATT

biological target: T1, RBFOX1 RRM; assay: EMSA; HiTS-Eq, 1 nM pool, 10 min; buffer printed only for the single-RNA assays: 10 mM Tris pH 7.5, 150 mM NaCl, 3.4 mM EDTA, 0.001% NP-40, 30 C; conditions: tags: His6 N-terminal (pET28a); label: 5' 32P
How it was run: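 Purified wild-type or mutant RbFox RRM at increasing concentrations was equilibrated with 1 nM of 5′-radiolabelled RNA carrying 7 randomized nucleotides for 10 min in 50 µL. Unbound RNA was separated by 8% native PAGE and sequenced. Relative association constants came from read-count changes of each RNA species compared with the control reaction, normalised to the cognate motif.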

Row | Binder | binding signal
1 | B1 | 0.000265 KA relative to UGCAUGU
2 | B2 | 0.00811 KA relative to UGCAUGU
3 | B3 | 0.015 KA relative to UGCAUGU
4 | B4 | 0.00283 KA relative to UGCAUGU
5 | B5 | 0.00894 KA relative to UGCAUGU
6 | B6 | 0.00783 KA relative to UGCAUGU
7 | B7 | 0.0156 KA relative to UGCAUGU
8 | B8 | 0.0108 KA relative to UGCAUGU
9 | B9 | 0.0123 KA relative to UGCAUGU
10 | B10 | 0.00217 KA relative to UGCAUGU
11 | B11 | 0.00696 KA relative to UGCAUGU
12 | B12 | 0.00195 KA relative to UGCAUGU
13 | B13 | 0.000642 KA relative to UGCAUGU
14 | B14 | 0.00418 KA relative to UGCAUGU
15 | B15 | 0.00414 KA relative to UGCAUGU
16 | B16 | 0.000387 KA relative to UGCAUGU

Row | Binder | binding signal
17 | B17 | 0.00282 KA relative to UGCAUGU
18 | B18 | 0.00582 KA relative to UGCAUGU
19 | B19 | 0.0116 KA relative to UGCAUGU
20 | B20 | 0.00672 KA relative to UGCAUGU
21 | B21 | 0.00489 KA relative to UGCAUGU
22 | B22 | 0.0137 KA relative to UGCAUGU
23 | B23 | 0.0116 KA relative to UGCAUGU
24 | B24 | 0.00226 KA relative to UGCAUGU
25 | B25 | 0.0168 KA relative to UGCAUGU
26 | B26 | 0.0203 KA relative to UGCAUGU
27 | B27 | 0.0146 KA relative to UGCAUGU
28 | B28 | 0.0043 KA relative to UGCAUGU
29 | B29 | 0.0152 KA relative to UGCAUGU
30 | B30 | 0.00641 KA relative to UGCAUGU
31 | B31 | 0.00774 KA relative to UGCAUGU
